# Some of the results follow. Sequences were assembled here from the parent chain. Inactive controls read about 0.05.
# B1: TEV protease; numbered along this chain (parent)
# chain: MGESLFKGPRDYNPISSSICHLTNESDGHTTSLYGIGFGPFIITNKHLFRRNNGTLVVQSLHGVFKVKDTTTLQQHLVDGRDMIIIRMPKDFPPFPQKLKFREPQREERICLVTTNFQTKSMSSMVSDTSCTFPSGDGIFWKHWIQTKDGQCGSPLVSTRDGFIVGIHSASNFTNTNNYFTSVPKNFMELLTNQEAQQWVSGWRLNADSVLWGGHKVFMVKPEEPFQPVKEATQL
# Variants of: B1
# Assay: raw area under fraction-flipped curve 0-4 h after induction (AUC4h, not background-subtracted), DNA-recorder readout of cleavage of the substrate (dimensionless); higher = more cleavage of the substrate by the protease variant
# Settings: temperature: 34 °C; time window: 0-4 h after rhamnose induction
# 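Further: Bxb1 expression induced with 0.2% (w/v) L-rhamnose at OD600 near 0.5, cultures sampled hourly, flipped fraction per protease–substrate barcode pair counted by paired-end Illumina sequencing.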
Variant,area with substrate ECLYFQS,area with substrate EELYFQS,area with substrate EFLYFQS,area with substrate EHLYFQS,area with substrate EILYFQS,area with substrate ELLYFQS,area with substrate EMLYFQS,area with substrate EPLYFQS,area with substrate EQLYFQS,area with substrate ERLYFQS,area with substrate ETLYFQS,area with substrate EVLYFQS,area with substrate EWLYFQS,area with substrate EDLYFQS,area with substrate EGLYFQS,area with substrate EKLYFQS,area with substrate EYLYFQS,area with substrate ESLYFQS
S124L,0.0932,0.0906,0.0877,0.112,0.101,0.0707,0.105,0.109,0.0868,0.0835,0.0832,0.0679,0.0839,–,–,–,–,–
S124N,0.0888,0.0964,–,–,–,0.0998,–,0.12,0.0922,0.0937,–,–,0.092,0.127,0.102,0.107,0.0965,–
D161M,0.0555,–,–,0.0644,0.0622,–,0.0653,0.0402,0.047,–,–,–,–,0.0624,–,0.0484,–,0.0591
D161I,0.0603,0.0517,0.0575,0.0517,0.086,0.0609,–,–,–,0.0446,–,–,0.0597,–,–,0.0602,–,0.0453
S169P,0.0618,0.0571,0.0544,0.066,–,0.0558,0.0362,0.0605,0.0269,0.0657,–,0.06,–,0.0375,0.0479,0.0425,0.0625,0.0629
V165W,0.0504,0.0729,–,–,–,–,0.0619,0.0458,0.099,0.0516,–,0.0452,–,0.0386,0.0637,0.0564,–,0.0408
V165Y,0.0544,0.0581,–,–,0.0456,–,0.0601,0.0538,0.0526,0.0558,0.0569,0.0609,–,0.0494,–,0.0493,–,0.0557
S123R,0.0551,–,–,–,0.0989,0.124,0.137,–,0.155,0.113,–,0.0919,0.0958,0.143,–,0.143,0.141,0.109
W141E,0.0598,–,–,–,–,0.0675,–,–,0.0441,–,–,0.0542,–,0.0684,0.0598,–,–,0.0528
K185H,0.119,0.155,–,–,–,–,0.129,–,–,0.0993,–,0.0968,–,–,0.0869,–,–,0.112
T174N,0.104,0.108,0.0623,0.158,0.107,0.113,–,0.119,0.149,–,–,0.0996,–,0.123,–,–,–,0.101
T147A,0.0725,–,–,–,0.086,0.0648,0.0919,–,0.068,0.0751,0.0964,0.0744,–,0.109,–,–,0.137,0.0909
F173Y,0.0468,–,–,0.121,0.0894,–,0.104,0.155,0.0991,–,0.131,0.0788,–,0.128,0.0882,–,–,0.0874
F173C,0.0547,0.0727,–,–,0.0565,–,0.0788,0.097,0.104,–,0.11,–,–,–,–,–,0.0795,0.0745
F173N,0.075,0.0997,–,–,0.0555,–,–,0.0867,–,0.0626,–,0.0795,–,0.103,0.0568,0.0782,0.0841,0.0811
L156T,0.0933,0.115,0.129,0.0986,0.0996,0.0957,0.123,–,0.112,0.0728,–,0.0659,–,–,–,–,–,–
